Measured values reported in publication PMC5493753.
No constants are given. Whether binding was seen depends on the method and setting. Binding seen in cells or lysates may run through a third protein. Some entries that bind do so weakly or less than the wild type. For some assays here: Tags and fused reporters may be left off the sequences shown.

Chains of the proteins cited; added tags and fusions are not shown.
UniProt Q3UP24: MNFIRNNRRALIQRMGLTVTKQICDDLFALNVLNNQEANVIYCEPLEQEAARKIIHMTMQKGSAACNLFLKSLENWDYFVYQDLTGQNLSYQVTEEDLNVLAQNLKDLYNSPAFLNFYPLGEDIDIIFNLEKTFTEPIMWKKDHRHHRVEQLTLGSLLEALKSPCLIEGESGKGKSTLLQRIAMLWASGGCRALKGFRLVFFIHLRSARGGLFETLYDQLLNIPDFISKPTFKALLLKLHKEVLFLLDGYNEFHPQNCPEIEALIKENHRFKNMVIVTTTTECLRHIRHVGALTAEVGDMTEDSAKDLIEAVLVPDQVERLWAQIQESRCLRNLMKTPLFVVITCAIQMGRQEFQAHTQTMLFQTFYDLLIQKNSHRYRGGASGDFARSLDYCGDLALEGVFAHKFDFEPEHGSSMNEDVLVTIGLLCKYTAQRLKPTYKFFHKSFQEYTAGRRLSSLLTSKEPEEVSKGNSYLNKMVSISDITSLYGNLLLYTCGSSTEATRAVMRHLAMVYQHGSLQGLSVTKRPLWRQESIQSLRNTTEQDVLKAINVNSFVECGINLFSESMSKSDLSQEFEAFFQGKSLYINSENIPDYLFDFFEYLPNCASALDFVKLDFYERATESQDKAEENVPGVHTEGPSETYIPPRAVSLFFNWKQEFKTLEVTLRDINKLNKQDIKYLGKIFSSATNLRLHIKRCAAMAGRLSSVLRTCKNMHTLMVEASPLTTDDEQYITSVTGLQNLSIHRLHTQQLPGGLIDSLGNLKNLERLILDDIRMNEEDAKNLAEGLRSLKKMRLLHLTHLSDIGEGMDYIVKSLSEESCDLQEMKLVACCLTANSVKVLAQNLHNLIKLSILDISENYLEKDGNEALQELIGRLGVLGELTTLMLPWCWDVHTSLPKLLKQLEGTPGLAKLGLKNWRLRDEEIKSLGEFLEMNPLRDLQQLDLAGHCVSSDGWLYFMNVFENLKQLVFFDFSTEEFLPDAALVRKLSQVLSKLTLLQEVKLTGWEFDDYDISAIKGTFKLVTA
UniProt Q9ULZ3: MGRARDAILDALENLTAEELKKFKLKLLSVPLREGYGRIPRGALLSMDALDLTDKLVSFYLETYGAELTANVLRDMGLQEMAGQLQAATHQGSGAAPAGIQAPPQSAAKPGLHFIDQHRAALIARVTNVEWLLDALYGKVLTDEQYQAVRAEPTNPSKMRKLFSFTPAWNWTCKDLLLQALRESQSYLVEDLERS
UniProt Q8R4B8: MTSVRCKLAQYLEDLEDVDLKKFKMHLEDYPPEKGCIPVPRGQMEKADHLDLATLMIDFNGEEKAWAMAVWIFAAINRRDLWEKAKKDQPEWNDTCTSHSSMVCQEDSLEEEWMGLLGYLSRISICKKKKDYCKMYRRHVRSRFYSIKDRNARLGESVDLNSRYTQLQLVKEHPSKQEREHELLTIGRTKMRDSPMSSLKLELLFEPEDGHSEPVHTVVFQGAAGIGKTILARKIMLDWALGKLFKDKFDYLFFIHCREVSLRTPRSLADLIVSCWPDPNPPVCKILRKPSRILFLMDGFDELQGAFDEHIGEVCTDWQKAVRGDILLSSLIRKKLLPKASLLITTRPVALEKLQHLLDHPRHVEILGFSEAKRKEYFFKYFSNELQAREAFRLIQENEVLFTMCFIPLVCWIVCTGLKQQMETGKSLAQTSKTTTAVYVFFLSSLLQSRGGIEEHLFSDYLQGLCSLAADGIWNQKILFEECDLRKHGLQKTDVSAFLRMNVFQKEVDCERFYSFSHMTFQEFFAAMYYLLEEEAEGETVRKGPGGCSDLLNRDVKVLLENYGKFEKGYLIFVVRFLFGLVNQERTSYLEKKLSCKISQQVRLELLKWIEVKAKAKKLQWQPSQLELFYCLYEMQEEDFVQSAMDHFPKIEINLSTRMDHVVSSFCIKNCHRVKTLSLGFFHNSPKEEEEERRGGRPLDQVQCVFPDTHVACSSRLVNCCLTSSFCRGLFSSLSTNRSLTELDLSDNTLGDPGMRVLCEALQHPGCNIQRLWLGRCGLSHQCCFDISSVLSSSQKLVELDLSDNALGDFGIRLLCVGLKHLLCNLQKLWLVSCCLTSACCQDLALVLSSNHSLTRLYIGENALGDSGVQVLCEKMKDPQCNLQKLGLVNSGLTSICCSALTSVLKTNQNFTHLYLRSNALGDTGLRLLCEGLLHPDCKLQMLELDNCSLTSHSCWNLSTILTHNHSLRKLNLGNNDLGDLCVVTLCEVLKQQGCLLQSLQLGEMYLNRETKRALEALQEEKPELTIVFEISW
UniProt Q96L34: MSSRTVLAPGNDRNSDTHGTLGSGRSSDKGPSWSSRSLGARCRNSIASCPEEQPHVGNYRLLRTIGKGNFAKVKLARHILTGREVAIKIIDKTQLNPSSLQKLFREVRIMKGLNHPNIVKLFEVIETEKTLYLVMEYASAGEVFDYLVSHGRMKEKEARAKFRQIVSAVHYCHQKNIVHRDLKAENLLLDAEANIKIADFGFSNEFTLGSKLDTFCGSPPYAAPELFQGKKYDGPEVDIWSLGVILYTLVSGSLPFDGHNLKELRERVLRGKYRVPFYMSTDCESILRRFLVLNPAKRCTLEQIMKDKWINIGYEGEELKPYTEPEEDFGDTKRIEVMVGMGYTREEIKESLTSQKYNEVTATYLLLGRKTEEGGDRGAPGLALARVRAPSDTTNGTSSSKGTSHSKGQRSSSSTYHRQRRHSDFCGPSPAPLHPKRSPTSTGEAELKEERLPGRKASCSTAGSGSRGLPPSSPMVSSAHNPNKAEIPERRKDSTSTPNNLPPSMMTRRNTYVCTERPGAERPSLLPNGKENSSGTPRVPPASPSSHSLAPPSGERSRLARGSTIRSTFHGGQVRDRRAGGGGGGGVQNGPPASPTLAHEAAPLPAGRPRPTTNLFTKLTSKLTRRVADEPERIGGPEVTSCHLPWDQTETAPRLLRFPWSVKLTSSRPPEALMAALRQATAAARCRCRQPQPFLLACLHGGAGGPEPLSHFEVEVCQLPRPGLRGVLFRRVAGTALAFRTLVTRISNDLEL
UniProt Q8CIP4: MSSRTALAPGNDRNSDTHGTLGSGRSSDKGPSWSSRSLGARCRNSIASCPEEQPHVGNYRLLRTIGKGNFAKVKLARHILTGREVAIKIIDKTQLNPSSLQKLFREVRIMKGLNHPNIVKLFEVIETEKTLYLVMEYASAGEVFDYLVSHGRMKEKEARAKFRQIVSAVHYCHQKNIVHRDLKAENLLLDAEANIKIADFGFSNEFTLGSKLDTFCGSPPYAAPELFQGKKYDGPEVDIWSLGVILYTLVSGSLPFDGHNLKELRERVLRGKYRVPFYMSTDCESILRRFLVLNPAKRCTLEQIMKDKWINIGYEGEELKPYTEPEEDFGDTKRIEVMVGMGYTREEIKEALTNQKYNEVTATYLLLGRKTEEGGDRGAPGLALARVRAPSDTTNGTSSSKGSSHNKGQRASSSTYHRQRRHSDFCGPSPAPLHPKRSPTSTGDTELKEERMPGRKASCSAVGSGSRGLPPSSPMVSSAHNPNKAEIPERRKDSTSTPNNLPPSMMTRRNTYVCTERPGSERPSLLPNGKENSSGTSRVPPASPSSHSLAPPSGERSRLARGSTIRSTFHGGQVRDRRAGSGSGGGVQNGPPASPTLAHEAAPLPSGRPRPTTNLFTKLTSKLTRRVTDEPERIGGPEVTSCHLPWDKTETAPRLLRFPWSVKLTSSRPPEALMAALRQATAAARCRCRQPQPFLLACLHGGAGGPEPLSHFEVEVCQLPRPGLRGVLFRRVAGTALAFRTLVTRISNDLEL

Assays:
[1] = molecular target: T1, Flag-tagged human AIM2 (human) (UniProt O14862); assay: co-IP; HEK293T co-transfected with HA-tagged and Flag-tagged proteins; triton lysis buffer (10 mM Tris-HCl pH 8.0, 2.5 mM MgCl2, 5 mM EGTA, 0.5% Triton X-100); anti-Flag M2 magnetic beads or anti-HA matrix; western blot
T1 sequence: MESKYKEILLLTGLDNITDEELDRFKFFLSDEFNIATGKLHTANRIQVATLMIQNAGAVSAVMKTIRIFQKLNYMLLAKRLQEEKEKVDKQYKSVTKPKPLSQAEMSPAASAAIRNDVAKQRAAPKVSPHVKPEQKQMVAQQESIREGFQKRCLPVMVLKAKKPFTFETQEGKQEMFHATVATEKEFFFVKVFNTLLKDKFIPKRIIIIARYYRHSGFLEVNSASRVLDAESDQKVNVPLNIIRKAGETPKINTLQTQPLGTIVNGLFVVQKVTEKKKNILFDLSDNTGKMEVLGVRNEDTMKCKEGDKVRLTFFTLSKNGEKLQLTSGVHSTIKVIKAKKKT

[2] = molecular target: Flag-tagged mouse NLRC4 (mouse) (UniProt Q3UP24); assay: as above
[3] = molecular target: Flag-tagged human ASC (apoptosis-associated Speck-like protein with a caspase-recruitment domain) (human) (UniProt Q9ULZ3); assay: as above
[4] = molecular target: T2, Flag-tagged human NLRP1 (human) (UniProt Q9C000); assay: as above
T2 sequence: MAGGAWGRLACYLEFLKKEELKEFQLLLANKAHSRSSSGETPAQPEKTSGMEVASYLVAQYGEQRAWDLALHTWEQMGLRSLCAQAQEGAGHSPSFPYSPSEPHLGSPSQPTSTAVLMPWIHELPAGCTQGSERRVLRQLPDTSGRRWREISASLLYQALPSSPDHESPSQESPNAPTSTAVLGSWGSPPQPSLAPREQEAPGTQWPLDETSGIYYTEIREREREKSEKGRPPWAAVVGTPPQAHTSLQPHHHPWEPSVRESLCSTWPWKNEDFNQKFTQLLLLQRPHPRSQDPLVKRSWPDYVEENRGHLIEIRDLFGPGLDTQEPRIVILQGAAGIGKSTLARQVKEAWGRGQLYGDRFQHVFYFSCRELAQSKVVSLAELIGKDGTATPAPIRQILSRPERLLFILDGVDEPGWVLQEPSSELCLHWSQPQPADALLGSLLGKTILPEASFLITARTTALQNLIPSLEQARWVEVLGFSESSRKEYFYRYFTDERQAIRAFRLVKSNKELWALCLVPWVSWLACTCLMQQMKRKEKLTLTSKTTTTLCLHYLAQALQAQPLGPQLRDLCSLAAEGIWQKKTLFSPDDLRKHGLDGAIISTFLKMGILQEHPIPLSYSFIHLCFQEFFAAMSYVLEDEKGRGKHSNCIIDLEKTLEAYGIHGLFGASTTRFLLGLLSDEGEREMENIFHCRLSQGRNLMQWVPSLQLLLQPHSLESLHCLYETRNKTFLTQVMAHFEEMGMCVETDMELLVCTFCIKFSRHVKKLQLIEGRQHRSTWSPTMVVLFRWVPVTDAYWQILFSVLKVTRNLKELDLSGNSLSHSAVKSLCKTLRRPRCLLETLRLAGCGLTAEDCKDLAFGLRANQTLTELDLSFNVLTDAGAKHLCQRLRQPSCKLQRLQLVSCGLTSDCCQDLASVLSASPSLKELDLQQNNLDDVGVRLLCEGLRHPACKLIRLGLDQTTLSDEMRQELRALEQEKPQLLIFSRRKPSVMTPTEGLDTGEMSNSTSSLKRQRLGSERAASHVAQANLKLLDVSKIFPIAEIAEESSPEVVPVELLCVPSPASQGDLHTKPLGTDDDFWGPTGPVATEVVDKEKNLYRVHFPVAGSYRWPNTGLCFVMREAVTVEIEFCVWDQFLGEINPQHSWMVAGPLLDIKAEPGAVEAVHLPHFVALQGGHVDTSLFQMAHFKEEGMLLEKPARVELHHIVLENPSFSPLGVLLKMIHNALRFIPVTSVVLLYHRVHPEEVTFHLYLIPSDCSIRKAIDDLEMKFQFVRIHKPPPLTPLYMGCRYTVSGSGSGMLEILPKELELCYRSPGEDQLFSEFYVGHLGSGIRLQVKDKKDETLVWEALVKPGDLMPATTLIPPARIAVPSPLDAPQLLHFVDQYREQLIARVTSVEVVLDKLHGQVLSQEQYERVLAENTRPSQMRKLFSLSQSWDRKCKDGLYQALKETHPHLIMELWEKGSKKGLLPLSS

[5] = molecular target: Nlrp3, endogenous in mouse bone marrow derived macrophages (mouse (endogenous in BMDM)) (UniProt Q8R4B8); assay: proximity ligation; in situ PLA (Olink) on fixed mouse BMDM, endogenous proteins; nigericin 3 μM for 2 h or unstimulated; also with colchicine or nocodazole, CagA peptide, and Mark4 KO, Nlrp3 KO or Asc KO cells as controls

Substance	binding [1]	binding [2]	binding [3]	binding [4]	binding [5]
HA-tagged full-length human MARK4 (microtubule-affinity regulating kinase 4) (from UniProt Q96L34 1-752)	no binding	no binding	no binding	no binding	–
Mark4, endogenous in mouse bone marrow derived macrophages (from UniProt Q8CIP4 1-752)	–	–	–	–	binds
